PMC6727748 (Molecular Biology of the Cell, 2019)

What was measured:
[1] = molecular target: YFP–CaV1.2 (rabbit CaV1.2 with YFP at the N terminus) (rabbit, UniProt P15381 1-2171); test: FRET or BRET
[2] = molecular target: CaV1.2–YFP (rabbit CaV1.2 with YFP at the C terminus) (rabbit, UniProt P15381 1-2171); test: FRET or BRET

B1: AKAP79ΔLZ–CFP (human AKAP79 lacking its C-terminal 17 residues, fused to CFP) (domain or fragment)
chain: not shown
For B1, the “apparent FRET efficiency (Eeff)” value [1] was 12.8% and the “apparent FRET efficiency (Eeff)” value [2] was 4.15%.
